Measured values: the supplement of paper PMC3334620
In all, about 33,000 sequences were measured (“E-score (-0.5 to 0.5)”: median about -0.017, highest 2% from about 0.3 on). The list shows a part of the results.

These sequences were tested against T1, Sut1 (UniProt P53032) (assay: PBM E-score (8-mer binding enrichment) (E-score (-0.5 to 0.5)); higher = stronger / more preferred TF binding; most listed sequences are background and not binding sites). Conditions: protein concentration: 200 nM; construct: GST-full length.
T1 sequence: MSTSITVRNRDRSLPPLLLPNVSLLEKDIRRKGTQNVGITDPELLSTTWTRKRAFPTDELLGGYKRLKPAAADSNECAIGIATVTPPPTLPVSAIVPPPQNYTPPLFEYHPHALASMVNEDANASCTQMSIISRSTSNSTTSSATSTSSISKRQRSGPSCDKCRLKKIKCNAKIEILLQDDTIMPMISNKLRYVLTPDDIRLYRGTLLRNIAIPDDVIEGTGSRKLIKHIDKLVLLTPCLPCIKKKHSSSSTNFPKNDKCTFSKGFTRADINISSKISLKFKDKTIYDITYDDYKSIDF
Procedure: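 Universal 'all 10-mer' protein binding microarrays (Agilent AMADID 015681) probed with GST-tagged S. cerevisiae TFs (full-length or DBD) made by in vitro transcription/translation (PURExpress), about 100-200 nM. Bound TF was detected with fluorescent anti-GST. Each ungapped 8-mer (which stands for itself and its reverse complement) is scored by the PBM enrichment score (E-score), a modified Wilcoxon-Mann-Whitney statistic from -0.5 to +0.5, computed with the Universal PBM Analysis Suite. Scale: above 0.35 generally sequence-specific binding.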
GTGCTCTA was tested, and the “PBM E-score” value was -0.0204. For AGATAACA, the “PBM E-score” value was 0.16. CATAGAAC was tested, and the “PBM E-score” value was -0.203. For CGTGCATC, the “PBM E-score” value was -0.179. With AGTAAAAC the “PBM E-score” value was 0.13. In the case of ACTGCCGC, the “PBM E-score” value is reported as -0.0183. In the case of ATCGTAAG, the “PBM E-score” value is reported as 0.0975. CCCGCGAA was tested, and the “PBM E-score” value was -0.0481. In the case of GAAGATCC, the “PBM E-score” value is reported as -0.0385. For CGGAGCTC, the “PBM E-score” value was 0.414. In the case of CTTCCAAA, the “PBM E-score” value is reported as 0.183. GGACATAC was tested, and the “PBM E-score” value was 0.0719. For ACTTAGAT, the “PBM E-score” value was 0.111. For CCTTTTAC, the “PBM E-score” value was 0.0886. With AACAAATG the “PBM E-score” value was 0.159. With TCAGGCAA the “PBM E-score” value was -0.0892. ATGCAGAC was tested, and the “PBM E-score” value was -0.221. With CCCATGAA the “PBM E-score” value was 0.015. For AAAGCAAG, the “PBM E-score” value was 0.14. For GCTTAAGA, the “PBM E-score” value was 0.00411. With AAGATTCG the “PBM E-score” value was 0.263. For AGTGATAA, the “PBM E-score” value was 0.0533. In the case of AGCTAACG, the “PBM E-score” value is reported as -0.0565. With CCGCTCGC the “PBM E-score” value was -0.0198. With CGTTTGCA the “PBM E-score” value was 0.0681. With CAATGCTA the “PBM E-score” value was 0.0355. With CTGTCGAA the “PBM E-score” value was -0.12. AGGCCAAA was tested, and the “PBM E-score” value was -0.00857. CAAGGAAC was tested, and the “PBM E-score” value was 0.00117. CTGTTACA was tested, and the “PBM E-score” value was -0.161. CCTCGCTA was tested, and the “PBM E-score” value was -0.282. In the case of GCAGGACA, the “PBM E-score” value is reported as -0.0419. For AAATAAGA, the “PBM E-score” value was 0.125. In the case of ACCCGTTA, the “PBM E-score” value is reported as 0.00856. For ATATAAGA, the “PBM E-score” value was 0.293. In the case of AAGCGCTG, the “PBM E-score” value is reported as -0.105. CTCAAGGA was tested, and the “PBM E-score” value was 0.0239. AAGACCTC was tested, and the “PBM E-score” value was -0.241. For ACCCATAG, the “PBM E-score” value was -0.167. TCAGCCGA was tested, and the “PBM E-score” value was 0.202. For CCATAGCA, the “PBM E-score” value was -0.11. In the case of CGCCACAC, the “PBM E-score” value is reported as -0.145. For ACCTCGTA, the “PBM E-score” value was 0.021. For ATAAAACA, the “PBM E-score” value was 0.118. With TAGGGGCA the “PBM E-score” value was -0.264. With CATACTCA the “PBM E-score” value was -0.0521. With GCTCTTCA the “PBM E-score” value was -0.104. CTTTAAAC was tested, and the “PBM E-score” value was 0.105. With CGGATGAA the “PBM E-score” value was 0.237. For AGTCGGGA, the “PBM E-score” value was -0.124. AACCCGGC was tested, and the “PBM E-score” value was -0.108. In the case of GACTGCGC, the “PBM E-score” value is reported as -0.133. With ATCCATCG the “PBM E-score” value was 0.04. With ATGTAGAG the “PBM E-score” value was 0.0102. With CAAAATTG the “PBM E-score” value was 0.0231. For CACAATGA, the “PBM E-score” value was 0.032. CCCTCTAG was tested, and the “PBM E-score” value was -0.151. In the case of AGTCTGCA, the “PBM E-score” value is reported as -0.215. For CAGCAGCA, the “PBM E-score” value was -0.108. ATCATATG was tested, and the “PBM E-score” value was 0.125. In the case of AAGTCTGG, the “PBM E-score” value is reported as -0.258. For GACTCGCA, the “PBM E-score” value was -0.0641. For GATAACGA, the “PBM E-score” value was 0.231. With ATGCTGCG the “PBM E-score” value was -0.181. In the case of CTCAAACC, the “PBM E-score” value is reported as 0.0169. In the case of AATGGCGG, the “PBM E-score” value is reported as -0.00582. In the case of AATCGGTC, the “PBM E-score” value is reported as 0.0679. In the case of GTACAGAC, the “PBM E-score” value is reported as -0.0712. With ACTAGTTG the “PBM E-score” value was 0.006. With CGAGGGAG the “PBM E-score” value was -0.136. In the case of CCATCTTA, the “PBM E-score” value is reported as -0.0249. In the case of CACAGTAG, the “PBM E-score” value is reported as -0.14. With CCGATACA the “PBM E-score” value was 0.0258. For CCCTCTGC, the “PBM E-score” value was -0.307. GAACTTAA was tested, and the “PBM E-score” value was 0.11. For TTAACGAA, the “PBM E-score” value was 0.139. AGGCACGC was tested, and the “PBM E-score” value was -0.0142. With GTATGACA the “PBM E-score” value was 0.0746. ATGAGAGC was tested, and the “PBM E-score” value was -0.152. With ATCATTGA the “PBM E-score” value was 0.239. With CTTCCGCC the “PBM E-score” value was -0.0457. GTAACATA was tested, and the “PBM E-score” value was 0.012. For CCACTATC, the “PBM E-score” value was 0.0221. GTTTGCTA was tested, and the “PBM E-score” value was 0.13. With CAGTTTCA the “PBM E-score” value was -0.0612. CGTCTATC was tested, and the “PBM E-score” value was -0.00556. With CGAACTAG the “PBM E-score” value was 0.0397. With CTTGTAGA the “PBM E-score” value was -0.151. With GTACCCAC the “PBM E-score” value was -0.0135. With CATAGTAC the “PBM E-score” value was 0.0294. GGTTCCGA was tested, and the “PBM E-score” value was 0.161. GAACCCTC was tested, and the “PBM E-score” value was -0.17. With ATCCGAAG the “PBM E-score” value was 0.101. For TTCCGCAA, the “PBM E-score” value was 0.166. AGGCGCAA was tested, and the “PBM E-score” value was 0.106. In the case of ATATCCCG, the “PBM E-score” value is reported as 0.0307. In the case of AGACCGCC, the “PBM E-score” value is reported as -0.118. In the case of ATCACCAA, the “PBM E-score” value is reported as 0.0304. With CCCGGACG the “PBM E-score” value was -0.12. ATCCCACC was tested, and the “PBM E-score” value was -0.0109. CCCAGAGG was tested, and the “PBM E-score” value was -0.236. With CGCATTTA the “PBM E-score” value was 0.243. CGGTGGGC was tested, and the “PBM E-score” value was -0.0785. With CAACCTTG the “PBM E-score” value was -0.0181. In the case of TTGCGCAA, the “PBM E-score” value is reported as 0.0974. In the case of TAGGCGGA, the “PBM E-score” value is reported as 0.255. AGCAGTGC was tested, and the “PBM E-score” value was -0.233. For ACATCGAC, the “PBM E-score” value was -0.138. In the case of TAGGGTCA, the “PBM E-score” value is reported as -0.235. For AATTTACT, the “PBM E-score” value was 0.282. In the case of CTCAGATA, the “PBM E-score” value is reported as 0.0396. For AACTTCGA, the “PBM E-score” value was -0.017. CAGGCGCA was tested, and the “PBM E-score” value was -0.0986. AAGTATGT was tested, and the “PBM E-score” value was 0.12. In the case of CTTATTGC, the “PBM E-score” value is reported as -0.121. With AATAACAT the “PBM E-score” value was 0.244. In the case of AGAACGTG, the “PBM E-score” value is reported as -0.0282. GATTAGCC was tested, and the “PBM E-score” value was -0.0982. In the case of CAATGCCG, the “PBM E-score” value is reported as 0.124. For AAATACGG, the “PBM E-score” value was 0.201. With TATTCTCA the “PBM E-score” value was 0.0471. In the case of CTTCGACC, the “PBM E-score” value is reported as -0.0354. AATTTGCC was tested, and the “PBM E-score” value was -0.00501. ATACCAAT was tested, and the “PBM E-score” value was 0.14. With TCTTCGAA the “PBM E-score” value was -0.0726. For CTAAGAAC, the “PBM E-score” value was 0.121. ATAAGAAC was tested, and the “PBM E-score” value was 0.286. CACATGAA was tested, and the “PBM E-score” value was -0.0713. ACGAGTAG was tested, and the “PBM E-score” value was 0.0791. With CAGCACGG the “PBM E-score” value was -0.0137. ATCAGCGG was tested, and the “PBM E-score” value was -0.0118. For AACTTATA, the “PBM E-score” value was 0.31. In the case of CCCTAGTC, the “PBM E-score” value is reported as -0.238. With AGGCTCTC the “PBM E-score” value was -0.148. With CTGACGCA the “PBM E-score” value was -0.265. In the case of GAAGGCTC, the “PBM E-score” value is reported as 0.0205. In the case of CCACCGTA, the “PBM E-score” value is reported as -0.097. For CCGTGACC, the “PBM E-score” value was -0.106. With CTGTGCAA the “PBM E-score” value was -0.217. In the case of GCAGTGAA, the “PBM E-score” value is reported as 0.172. With AACGGTGT the “PBM E-score” value was -0.149. For CACACATA, the “PBM E-score” value was 0.0589. In the case of CAGTACTC, the “PBM E-score” value is reported as 0.051. TACGTCAA was tested, and the “PBM E-score” value was -0.0371. CCTGAGCG was tested, and the “PBM E-score” value was -0.381. For AACTAATG, the “PBM E-score” value was 0.241. For AACCCAGA, the “PBM E-score” value was -0.012. With ATTCCTTA the “PBM E-score” value was 0.0361. ACCATTAA was tested, and the “PBM E-score” value was 0.252. ACGGTAAT was tested, and the “PBM E-score” value was -0.0094. In the case of AGTGATTC, the “PBM E-score” value is reported as 0.0201. ACATCAGA was tested, and the “PBM E-score” value was 0.0242. In the case of GATGCATC, the “PBM E-score” value is reported as 0.076. For AAAGGCCC, the “PBM E-score” value was -0.0192. With AGCATTCA the “PBM E-score” value was -0.137. With ATCCATAA the “PBM E-score” value was 0.137. GTCCCAAC was tested, and the “PBM E-score” value was -0.138. With GACTAATC the “PBM E-score” value was 0.0321. GGTCACAA was tested, and the “PBM E-score” value was -0.161. With GTAGAGTA the “PBM E-score” value was 0.072. In the case of CAAGGTGC, the “PBM E-score” value is reported as -0.0931. In the case of ACTAATTC, the “PBM E-score” value is reported as 0.215. In the case of CAGTGAAG, the “PBM E-score” value is reported as -0.137. With CCCCTGGC the “PBM E-score” value was -0.366. CGAGATGA was tested, and the “PBM E-score” value was -0.0261. With AACCTGGC the “PBM E-score” value was -0.0981. ATCTTGGG was tested, and the “PBM E-score” value was -0.174. In the case of AGTCTAAC, the “PBM E-score” value is reported as -0.0149. In the case of AAACGCCG, the “PBM E-score” value is reported as 0.0637. In the case of GAGAGGGC, the “PBM E-score” value is reported as -0.334. For ACCTCTGA, the “PBM E-score” value was -0.0851. In the case of ACCGAATG, the “PBM E-score” value is reported as -0.044.
